Source: the antibiotic and cytotoxicity screens of Wong et al. (2023)
The other results are listed elsewhere or left out.

Assays:
[1] = test system: HSkMC (human skeletal muscle cells); assay: cytotoxicity call (relative viability < 0.9); conditions: 10 µM
[2] = test system: HepG2; assay: cytotoxicity call (relative viability < 0.9); conditions: 10 µM
[3] = test system: S. aureus RN4220; assay: growth inhibition call (relative growth <= 0.2); conditions: 50 µM

| Compound | cytotoxicity call [1] | cytotoxicity call [2] | growth inhibition call [3] |
| --- | --- | --- | --- |
| O=C(C[C@H]1C[C@H]2c3cc(NC(=O)Nc4ccc(C(F)(F)F)cc4)ccc3O[C@H]2[C@H](CO)O1)NCc1cc(F)ccc1F | inactive | inactive | inactive |
| COc1ccc(NC(=O)Nc2ccc3c(c2)C(=O)N([C@H](C)CO)C[C@@H](C)[C@H](CN(C)S(=O)(=O)c2c(C)noc2C)OCCCC[C@H](C)O3)cc1 | inactive | inactive | inactive |
| Cl.NCCCCCC(=O)O | inactive | inactive | inactive |
| CC(C)CC#Cc1cnc2c(c1)C(=O)N([C@@H](C)CO)C[C@@H](C)[C@@H](CN(C)C(=O)CCN1CCCCC1)O2 | inactive | inactive | inactive |
| C[C@H](CO)N1C[C@H](C)[C@@H](CN(C)Cc2ccc(Cl)c(Cl)c2)Oc2ccc(NC(=O)NC3CCCCC3)cc2CC1=O | inactive | inactive | inactive |
| C[C@@H]1CCCCO[C@H](CN(C)S(=O)(=O)c2ccccc2)[C@H](C)CN([C@H](C)CO)C(=O)c2cc(NC(=O)Nc3cccc4ccccc34)ccc2O1 | inactive | inactive | inactive |
| C[C@@H]1CCCCO[C@@H](CN(C)S(=O)(=O)c2cn(C)cn2)[C@@H](C)CN([C@@H](C)CO)C(=O)c2cc(NS(=O)(=O)c3ccccc3)ccc2O1 | inactive | inactive | inactive |
| CN(C)CCCNC(=O)C[C@@H]1CC[C@@H]2[C@@H](COc3ccc(NC(=O)c4ccc5c(c4)OCO5)cc3C(=O)N2C)O1 | inactive | inactive | inactive |
| CO[C@@H]1CN(C)C(=O)c2cc(NS(=O)(=O)CC(F)(F)F)ccc2OC[C@@H](C)N(Cc2nccs2)C[C@H]1C | inactive | inactive | inactive |
| FC(F)(F)c1cc(NC(=S)Nc2ccc(Br)cc2-c2nn[nH]n2)cc(C(F)(F)F)c1 | active | inactive | active |
| C[C@H]1CN([C@@H](C)CO)C(=O)c2cc(NC(=O)CCCN(C)C)ccc2O[C@H]1CN(C)S(=O)(=O)c1ccccc1 | inactive | inactive | inactive |
| Cc1noc(C)c1S(=O)(=O)Nc1ccc2c(c1)CC(=O)N([C@H](C)CO)C[C@H](C)[C@@H](CN(C)Cc1ccc(-c3ccccc3)cc1)O2 | active | active | inactive |
| CC(=O)OC1(C(C)=O)CCC2C3C=C(Cl)C4=CC(=O)C5CC5C4(C)C3CCC21C (stereo unspecified) | inactive | inactive | inactive |
| Cc1noc(C)c1S(=O)(=O)N(C)C[C@H]1Oc2ccc(NS(=O)(=O)c3ccc(F)cc3)cc2C(=O)N([C@@H](C)CO)C[C@H]1C | inactive | inactive | inactive |
| CN1C(=O)c2cc(NS(=O)(=O)c3ccc(F)cc3)ccc2OC[C@H]2O[C@@H](CC(=O)NCC(F)(F)F)CC[C@H]21 | inactive | inactive | inactive |
| O=C(O)CCCNC(=O)c1cncc(O)c1 | inactive | inactive | inactive |
| C[C@@H]1CN([C@H](C)CO)C(=O)c2cc(NC(=O)CCN3CCOCC3)ccc2O[C@H]1CN(C)C(=O)Nc1ccc(F)cc1 | inactive | inactive | inactive |
| Cc1noc(C)c1S(=O)(=O)Nc1ccc2c(c1)C(=O)N([C@@H](C)CO)C[C@@H](C)[C@H](CN(C)Cc1ccc(Oc3ccccc3)cc1)O2 | inactive | inactive | inactive |
| CN1CCN(C(=O)C[C@@H]2CC[C@@H]3[C@H](COC[C@H](O)CN3Cc3ccc4c(c3)OCO4)O2)CC1 | inactive | inactive | inactive |
| C[C@@H]1CCCCO[C@H](CN(C)S(=O)(=O)c2ccc(Cl)cc2)[C@H](C)CN([C@@H](C)CO)C(=O)c2cc(NS(=O)(=O)c3ccc(F)cc3)ccc2O1 | inactive | active | inactive |
| C[C@H](CO)N1C[C@H](C)[C@H](CN(C)Cc2ccc(C(=O)Nc3ccccc3N)cc2)Oc2c(NC(=O)C3CCCCC3)cccc2C1=O | inactive | inactive | inactive |
| C[C@@H]1[C@H]2[C@H](O[C@@H]3O[C@H](CO)[C@@H](O)[C@H](O)[C@H]3O)OC=C(C(=O)O)[C@H]2C[C@@H]1OC(=O)/C=C/c1ccc(O)cc1 | inactive | inactive | inactive |
| C[C@H](CO)N1C[C@H](C)[C@H](CN(C)Cc2ccc(C(=O)O)cc2)OCCCC[C@H](C)Oc2ccc(NC(=O)Cc3ccccc3)cc2C1=O | inactive | inactive | inactive |
| C[C@@H]1CN([C@H](C)CO)C(=O)c2cc(NS(C)(=O)=O)ccc2O[C@H]1CN(C)S(=O)(=O)c1ccc(F)cc1 | inactive | inactive | inactive |
| C[C@@H]1CN([C@@H](C)CO)C(=O)c2cc(NS(=O)(=O)c3ccccc3)ccc2O[C@H]1CN(C)S(=O)(=O)c1cccs1 | inactive | inactive | inactive |
| C[C@H]1CCCCO[C@H](CN(C)S(=O)(=O)c2ccc(F)cc2)[C@@H](C)CN([C@@H](C)CO)C(=O)c2cc(NC(=O)Cc3ccccc3)ccc2O1 | inactive | inactive | inactive |

| Compound | cytotoxicity call [1] | cytotoxicity call [2] | growth inhibition call [3] |
| --- | --- | --- | --- |
| C[C@H](CO)N1C[C@H](C)[C@H](CN(C)Cc2ccc(C(F)(F)F)cc2)OCCCC[C@H](C)Oc2ccc(NC(=O)Nc3ccc(C(F)(F)F)cc3)cc2C1=O | inactive | active | inactive |
| Cc1cc(C(=O)Nc2cccc3c2O[C@H](CN(C)S(C)(=O)=O)[C@H](C)CN([C@@H](C)CO)C3=O)n(C)n1 | inactive | inactive | inactive |
| Cc1noc(C)c1NC(=O)N(C)C[C@@H]1OCCCC[C@@H](C)Oc2ccc(NS(=O)(=O)c3ccccc3)cc2C(=O)N([C@H](C)CO)C[C@@H]1C | inactive | inactive | inactive |
| C[S+](C)CC[C@H](N)C(=O)O | inactive | inactive | inactive |
| Cc1ccc(S(=O)(=O)Nc2ccc3c(c2)C(=O)N([C@H](C)CO)C[C@@H](C)[C@H](CN(C)C(=O)Cc2ccccc2)OCCCC[C@@H](C)O3)cc1 | inactive | inactive | inactive |
| Cc1ccc(=O)[nH]n1 | inactive | inactive | inactive |
| C[C@@H]1CN([C@H](C)CO)C(=O)c2cc(C#Cc3ccccc3)cnc2O[C@@H]1CN(C)S(=O)(=O)c1ccccc1F | inactive | inactive | inactive |
| COc1ccccc1NC(=O)N(C)C[C@H]1Oc2cc(Br)ccc2S(=O)(=O)N([C@H](C)CO)C[C@@H]1C | inactive | inactive | inactive |
| COc1ccc(CN(C)C[C@@H]2OCCCC[C@@H](C)Oc3ccc(NC(=O)Nc4c(C)noc4C)cc3C(=O)N([C@H](C)CO)C[C@H]2C)cc1 | inactive | inactive | inactive |
| COc1ccc(NC(=O)Nc2ccc3c(c2)C(=O)N([C@H](C)CO)C[C@@H](C)[C@@H](CN(C)C(=O)C2CCCCC2)OCCCC[C@H](C)O3)cc1 | inactive | inactive | inactive |
| COc1ccc(S(=O)(=O)N(C)C[C@@H]2OCCCC[C@@H](C)Oc3ccc(NS(C)(=O)=O)cc3C(=O)N([C@@H](C)CO)C[C@@H]2C)cc1 | inactive | inactive | inactive |
| O=C(N[C@H]1CC[C@H](CCNS(=O)(=O)c2ccccc2)O[C@@H]1CO)c1cnccn1 | inactive | inactive | inactive |
| C[C@@H]1CN([C@@H](C)CO)C(=O)CCCn2nncc2CO[C@@H]1CN(C)S(=O)(=O)c1ccccc1C#N | inactive | inactive | inactive |
| Cc1ccc(S(=O)(=O)N(C)C[C@@H]2OCCCC[C@@H](C)Oc3ccc(NC(=O)Cc4ccccc4)cc3C(=O)N([C@@H](C)CO)C[C@H]2C)cc1 | inactive | inactive | inactive |
| COCCCNC(=O)[C@@]1(Sc2ccc(C)cc2)CC(=O)N(Cc2cc(C(F)(F)F)cc(C(F)(F)F)c2)[C@@H]1c1ccc(CO)cc1 | inactive | inactive | inactive |
| CC(C)CC#Cc1ccc2c(c1)O[C@H](CN(C)Cc1cncnc1)[C@H](C)CN([C@H](C)CO)S2(=O)=O | inactive | inactive | inactive |
| COCC(=O)Nc1ccc2c(c1)OC[C@@H](C)N(C(=O)c1ccccc1F)C[C@H](C)[C@H](OC)CN(C)C2=O | inactive | inactive | inactive |
| Cc1ccc(S(=O)(=O)N(C)C[C@H]2Oc3ccc(NC(=O)CCN4CCOCC4)cc3CC(=O)N([C@@H](C)CO)C[C@H]2C)cc1 | inactive | inactive | inactive |
| C[C@@H]1CN([C@@H](C)CO)C(=O)Cc2cc(NC(=O)C3CCCCC3)ccc2O[C@H]1CN(C)C(=O)Nc1ccc(C(F)(F)F)cc1 | inactive | inactive | inactive |
| Cc1noc(C)c1NC(=O)N(C)C[C@H]1Oc2ccc(NC(=O)Nc3cccc4ccccc34)cc2CC(=O)N([C@@H](C)CO)C[C@@H]1C | inactive | inactive | inactive |
| C[C@H](CO)N1C[C@H](C)[C@@H](CN(C)S(=O)(=O)c2cccs2)OCCCC[C@H](C)Oc2ccc(NS(=O)(=O)c3ccc(Cl)cc3)cc2C1=O | inactive | active | inactive |
| C[C@@H]1CN([C@H](C)CO)C(=O)c2cc(NS(C)(=O)=O)ccc2O[C@@H](C)CCCCO[C@@H]1CN(C)S(=O)(=O)c1cccs1 | inactive | inactive | inactive |
| CN(C)CCCNC(=O)C[C@@H]1CC[C@@H]2[C@H](COC[C@H](O)CN2S(=O)(=O)c2ccc(Cl)cc2)O1 | inactive | inactive | inactive |
| C[C@@H]1CCCCO[C@H](CN(C)Cc2ccc3c(c2)OCO3)[C@H](C)CN([C@@H](C)CO)C(=O)c2cc(NC(=O)Nc3ccc4c(c3)OCO4)ccc2O1 | active | active | inactive |
| Cc1ccc(S(=O)(=O)N(C)C[C@@H]2Oc3ccc(NC(=O)Nc4ccc(C(F)(F)F)cc4)cc3C(=O)N([C@@H](C)CO)C[C@@H]2C)cc1 | inactive | inactive | inactive |
| Cc1noc(C)c1S(=O)(=O)N(C)C[C@@H]1OCCCC[C@@H](C)Oc2ccc(NC(=O)Nc3ccc(C(F)(F)F)cc3)cc2C(=O)N([C@H](C)CO)C[C@@H]1C | inactive | inactive | inactive |
